Assay results as given in PMC4336329 (PLoS ONE, 2015).
The whole screen tested about 310,000 compounds, of which about 14,000 (4.5%) showed an effect of 50% or more. Effects have a minus sign here. Some of the results follow.

Molecular target: human ether-à-go-go-related gene (hERG) potassium channel (human, UniProt Q12809)
Assay: primary screen, population patch clamp on CHO cells stably expressing hERG
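Further: peak tail current of the secondary pulse compared with the same well before compound.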

human ether-à-go-go-related gene (hERG) potassium channel, sequence (Q12809 whole entry, looked up): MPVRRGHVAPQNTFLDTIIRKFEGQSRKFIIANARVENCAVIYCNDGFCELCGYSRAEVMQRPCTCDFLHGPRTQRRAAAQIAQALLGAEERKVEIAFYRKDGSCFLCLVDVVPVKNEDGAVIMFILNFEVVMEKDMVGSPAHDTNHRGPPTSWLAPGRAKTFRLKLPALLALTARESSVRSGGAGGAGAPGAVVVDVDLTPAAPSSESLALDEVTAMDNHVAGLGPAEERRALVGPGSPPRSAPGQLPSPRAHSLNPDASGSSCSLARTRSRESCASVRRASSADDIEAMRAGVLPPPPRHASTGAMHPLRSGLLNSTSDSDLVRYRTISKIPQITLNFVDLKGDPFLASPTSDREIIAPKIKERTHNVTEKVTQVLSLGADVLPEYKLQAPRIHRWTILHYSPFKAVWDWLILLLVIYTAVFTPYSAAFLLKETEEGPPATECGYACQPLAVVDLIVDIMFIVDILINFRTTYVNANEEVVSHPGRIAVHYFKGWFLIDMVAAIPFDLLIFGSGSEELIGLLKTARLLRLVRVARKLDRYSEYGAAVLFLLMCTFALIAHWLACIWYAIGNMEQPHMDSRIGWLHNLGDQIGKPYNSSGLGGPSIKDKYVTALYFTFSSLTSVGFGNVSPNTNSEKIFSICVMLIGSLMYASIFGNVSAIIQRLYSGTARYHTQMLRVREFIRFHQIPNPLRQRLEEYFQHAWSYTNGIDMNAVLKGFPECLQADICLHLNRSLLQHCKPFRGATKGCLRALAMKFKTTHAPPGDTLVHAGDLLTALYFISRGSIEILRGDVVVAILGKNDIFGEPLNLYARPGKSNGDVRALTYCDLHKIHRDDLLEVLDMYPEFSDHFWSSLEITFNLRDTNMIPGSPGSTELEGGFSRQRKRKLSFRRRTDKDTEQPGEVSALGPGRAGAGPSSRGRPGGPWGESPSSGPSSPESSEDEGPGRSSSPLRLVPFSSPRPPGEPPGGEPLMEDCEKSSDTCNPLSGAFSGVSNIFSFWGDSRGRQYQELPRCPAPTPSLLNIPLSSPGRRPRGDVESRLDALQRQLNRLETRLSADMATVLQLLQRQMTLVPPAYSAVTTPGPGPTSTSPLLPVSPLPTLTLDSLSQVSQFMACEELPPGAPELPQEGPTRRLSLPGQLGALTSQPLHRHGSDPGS

Row | Structure (SMILES) | hERG current change (%, negative = inhibition) at 10uM [%]
1 | Fc1ccc(CSc2ccc3nnc(-c4ccccn4)n3n2)cc1 | -87.6
2 | Cc1ccccc1OCC(O)Cn1c(=N)n(Cc2ccccc2)c2ccccc21.Cl (stereo not drawn) | -73
3 | CN(CC(=O)Nc1ccc(OC(F)(F)F)cc1)C(=O)Cc1c(Cl)cccc1Cl | 11.2
4 | Cn1ncc([N+](=O)[O-])c1C(=O)NC1CCCCC1 | 24.1
5 | Cc1ccc(S(=O)(=O)N2CCN(C(=O)Cc3ccc4c(c3)OCCO4)CC2)cc1C | -40.8
6 | O=C(Sc1ccccc1)c1cccc(Cn2cc(C(F)(F)F)ccc2=O)c1 | -21
7 | COc1ccc([N+](=O)[O-])cc1NC(=O)c1ccc(C)o1 | -1.33
8 | CCSc1nnc(-c2ccncc2)n1Cc1ccccc1 | -18.5
9 | COC(=O)CNC(=O)c1cccc(F)c1 | 8.24
10 | COc1cccc(OC)c1C(=O)NNC(=O)c1ccc(F)cc1 | 26.9
11 | COc1ccc(-c2cc(C(F)(F)F)nc(SCC(=O)NCc3cccs3)n2)cc1 | -0.806
12 | CC(C)(C)C(=O)Nc1ccccc1C(=O)NCc1cccnc1 | 17.3
13 | COc1ccc(-n2c(=O)[nH]c3c(C(N)=O)nc(C4CCCCC4)nc32)cc1 | -6.53
14 | CC(=O)Nc1c(NC(=O)CC#N)[nH]c2c(c1=O)c(=O)n(C)c(=O)n2C | 15.6
15 | O=c1c2ccccc2cnn1Cc1n[nH]c(=S)n1-c1ccccc1F | 18.8
16 | Fc1cccc2sc(N3CCOCC3)nc12 | 8.35
17 | COc1cc(-c2cc(=O)c3c(O)cc(O)cc3o2)ccc1O | 17.3
18 | O=C(Nc1ccccc1[N+](=O)[O-])c1cncc(Br)c1 | -0.382
19 | CSc1nc(N)nc(SCC(=O)Nc2ccc(Cl)cc2)c1C#N | -11.1
20 | Nc1cc([N+](=O)[O-])ccc1Nc1ccc(O)cc1 | -8.83
21 | CCCCC(=O)N/N=C/c1c(O)n(Cc2ccco2)c(=O)[nH]c1=O | 8.09
22 | OC(c1ccc(Cl)cc1)c1nnc(-c2ccccc2)o1 (stereo not drawn) | 2.19
23 | CCC[C@@H]1CCCC/C=C\CCCC(=O)OCCN1C(=O)OC(C)(C)C | -3.14

Row | Structure (SMILES) | hERG current change (%, negative = inhibition) at 10uM [%]
24 | O=C(NC(=S)Nc1nc(-c2cccc3ccccc23)cs1)c1cc2ccccc2o1 | -0.27
25 | CN(NC(=O)c1ccc(Cl)cc1)c1cccc(Cl)n1 | -14.2
26 | CC12CC[C@H]3[C@@H](CCC4(O)C[C@H](O)CCC34/C=N/NC(=O)Cc3ccccc3)C1(O)CCC2C1=CC(=O)OC1 (stereo partly drawn) | 11.2
27 | O=S(=O)(Nc1ccc2c(c1)OCCO2)c1cccs1 | 5.92
28 | COc1cc(C2C3=C(CC(c4ccco4)CC3=O)Nc3ccccc3N2C(C)=O)cc(OC)c1OC (stereo not drawn) | 4.52
29 | Cc1ccc(S(=O)(=O)N2CCCC(C(=O)NCC(C)C)C2)cc1 (stereo not drawn) | 3.46
30 | COc1ccc(-c2nc(C)ncc2-c2ccccc2)c(O)c1 | -1.19
31 | CNc1oc(-c2ccccc2F)nc1S(=O)(=O)c1ccc(C)cc1 | 2.47
32 | CCc1cc2c(SCC(=O)N3CC(=O)Nc4ccccc43)ncnc2s1 | -12.6
33 | Cc1cccc([N+](=O)[O-])c1NC(=O)CSc1nnc2ccccn12 | 9.29
34 | Cc1ccc(C(=O)NCc2nnc(SCC(=O)Nc3ccccc3)n2C)cc1 | -46.5
35 | COc1cc(S(=O)(=O)N2CCCCCC2)c(OC)cc1Br | -7.25
36 | Cc1ccc(CN2C(=O)CCC2C(=O)NCCN2CCN(c3cccc(Cl)c3)CC2)cc1 (stereo not drawn) | -48.1
37 | O=C(Nc1ccc(Cn2cccn2)cc1)c1ccc(COc2ccc(Br)cc2)cc1 | 16.8
38 | O=C(CN1CCCCC1)Nc1nnc(-c2ccccc2)s1 | -12.3
39 | O=C(CSC1=Nc2ccccc2C2=NC(c3ccccc3)C(=O)N12)NC1CCCCC1 (stereo not drawn) | -20.1
40 | CCCCOc1ccc(/C=C/C(=O)OCC(=O)c2c(N)n(C)c(=O)n(C)c2=O)cc1OCC | 5.01
41 | O=c1c2c(nc3n1CCCCC3)-c1ccccc1CC21CCCC1 | -31
42 | Cn1c(Nc2cccc(Cl)c2)nc2ccccc21 | 2.08
43 | CC(C)(C)N1C(=O)c2ccc(C(=O)Nc3nccs3)cc2C1=O | 0.415
44 | S=C1NNC2(CC3CC2C2CCCC32)NN1 (stereo not drawn) | 20.5
45 | Cc1ccc(-c2nc(NC(=O)CSc3ccc4ccccc4n3)ns2)cc1 | 2.03
46 | O=C(NCCCCc1ccccc1)c1ccc(Br)cc1 | 16.4

Row | Structure (SMILES) | hERG current change (%, negative = inhibition) at 10uM [%]
47 | CCN(CC(=O)Nc1c(F)cccc1F)C(=O)Cc1c(C)nc2ccccc2c1C | -55.1
48 | Cc1ccsc1C(=O)OCC(=O)N1CC(=O)Nc2ccccc21 | 8.69
49 | Cc1ccccc1NS(=O)(=O)c1cc(C(=O)Nc2cccc(N(C)S(C)(=O)=O)c2)ccc1C | 2.52
50 | Cc1sc(NC(=O)c2ccco2)c(CN2CCCCC2)c1C | -49.9
51 | Cc1ccc(NC(=O)CN2CCCC2)c2c1CC(C)(C)O2 | 26.9
52 | CC(CC(=O)Nc1cccnc1)c1ccccc1 (stereo not drawn) | 23
53 | COc1ccccc1CCC(=O)OCC(=O)Nc1cccc(S(=O)(=O)N2CCCCC2)c1 | -6.37
54 | O=C(Nc1sc2c(c1C(=O)O)CCCC2)c1ccc(F)cc1 | 10.1
55 | CC(=O)c1ccc(NC(=S)NC(NC(=O)c2ccco2)C(Cl)(Cl)Cl)cc1 (stereo not drawn) | -3.92
56 | O=C(COC(=O)c1ccc(-c2nnc(-c3ccccc3)o2)cc1)c1ccccc1 | 16.8
57 | COC(=O)c1ccc(Oc2c(F)c(F)nc(N3CCOCC3)c2F)cc1 | 15.8
58 | CCN(CC)CCOC(=O)c1cc2cc(COC)ccc2o1.CI | 17
59 | O=C(c1ccc([N+](=O)[O-])o1)N1CCOCC1 | 1.3
60 | COCCN1C=C(C(=O)OC)C(c2cc3c(cc2Br)OCO3)C(C(=O)OC)=C1 | -1.89
61 | COC(=O)C(C(=O)Nc1cccc(Cl)c1C)C1CCCC1 (stereo not drawn) | 3.99
62 | Cn1nc(C(C)(C)C)cc1C(=O)NNC(=O)c1ccccc1Cl | 14.1
63 | CCn1c(-c2ccccc2Cl)nn(CC(=O)Nc2ccccc2OC)c1=S | -1.37
64 | CCOC(=O)C1CCCN(Cc2ccc(OCc3ccccc3)cc2)C1.O=C(O)C(=O)O (stereo not drawn) | -40.6
65 | COC(=O)CN(Cc1ccco1)S(=O)(=O)c1ccccc1 | -13.7
66 | N#Cc1ccc(Oc2ccc(S(=O)(=O)N3CCCC3)cn2)cc1 | -35.8
67 | COc1ccc(C2(CN(C(C)=O)C(C)=O)CCCC2)cc1OC | 8.14
68 | O=C(CC(=O)N/N=C\c1ccc(F)cc1)NCCc1ccccc1 | 17.2
69 | CC1CCN(C(=O)c2ccc3c(c2)NC(=O)CN3)CC1 | 8.49

Row | Structure (SMILES) | hERG current change (%, negative = inhibition) at 10uM [%]
70 | CC1CN(CCOCCSc2ccccc2)CC(C)O1.Cl (stereo not drawn) | -14.9
71 | Cc1c(C(=O)OC(C)C)sc(N)c1C(=O)OC(C)C | -6.59
72 | COc1ccccc1N1CCN(c2nc(C)nc3c2oc2ccccc23)CC1.Cl | -1.5
73 | COc1cccc(/C=N/NC(=O)c2c(C)nc3ccc(Cl)cn23)c1O | 19
74 | O=C1NCCN1Cc1ccc(F)cc1 | -1.99
75 | OCCNCCCCCOc1ccc(F)cc1 | -12.2
76 | COc1ccccc1N1CCN(C(c2cccs2)C(C)NC(=O)c2ccncc2)CC1 (stereo not drawn) | -6.58
77 | CCc1ccccc1NC(=O)c1cc(-c2ccc(F)cc2)on1 | 25.8
78 | O=C1COc2ccc(C(=O)COC(=O)/C=C/c3ccco3)cc2N1 | 5.09
79 | COc1ccc(C(=O)Nc2ccc3c(c2)OCCO3)cc1Br | 9.98
80 | CCc1cc2cc(C(=O)N3CCN(Cc4ccccc4)CC3)sc2s1 | -36.7
81 | CCOC(=O)C1(CCOC)CCN(C(=O)c2ccc(CSC)o2)CC1 | 0.525
82 | Cc1cccc(C)c1NC(=O)CN(C)C(=O)c1ccccc1C(=O)N(C)Cc1ccccc1 | 1.05
83 | CC(=O)Nc1ccc(/C=C/c2ccc3cccc([N+](=O)[O-])c3n2)cc1 | -7.33
84 | Cc1cc([N+](=O)[O-])cc2c1NC(=O)C2(O)N1CCCCCC1 (stereo not drawn) | -13.7
85 | O=C(C1CCCCN1S(=O)(=O)c1ccccc1)N1CCCCC1 (stereo not drawn) | -1.03
86 | O=C(CSC1CN(C(c2ccccc2)c2ccccc2)C1)N/N=C/c1ccccc1 | 1.64
87 | COc1cc(Cl)ccc1OCc1cc(C(=O)N[C@H]2CCCCNC2=O)no1 | -23
88 | CCC(C)c1ccc(N(CC(=O)NC(C)(C)C)C(=O)CNC(=O)c2cccs2)cc1 (stereo not drawn) | 22.7
89 | Cc1ccc(S(=O)(=O)N2CCC(C(=O)OCC(=O)N3CCCCC3C)CC2)cc1C (stereo not drawn) | -0.662
90 | CC(=O)Nc1ccc(S(=O)(=O)N2CCCc3ccccc32)cc1 | -16.7
